In all, about 360,000 compounds went through this assay and about 7,500 (2.1%) were called active. Inconclusive means that the source gave no clear call. Such entries were picked first, then a sample of the others. The call rests on the fitted dose curve; in most records, active means well fitted cell-killing curve with a large enough effect; inconclusive means small, poorly fitted or top-dose-only effect, or effect the other way, or another doubt; inactive means no such curve, though single readings can be large or run the other way. Potencies of inconclusive entries are left out as doubtful fits.
Assay: qHTS for induction of synthetic lethality in tumor cells producing 2HG: qHTS for the HT-1080-IDH1KD cell line;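 on activity, negative = toxicity: 0% = DMSO wells and -100% = cell-free medium wells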
Settings: HT-1080 IDH1 knockdown viability, ATP luminescence, 48 h; activity, negative = toxicity: at 46.1 µM (top of the series) unless noted
Summary of the method: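 Knockdown cells (IDH1KD HT-1080) received compounds 2 h after plating at 750 cells/well and were kept 48 h at 37 °C in 5% FBS RPMI. A CellTiter-Glo luminescence read gave % activity for curve fitting.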
Potency means the concentration at half of the fitted maximal effect; tags describe the fitted curve by direction and shape.

SMILES | Potency | activity, negative = toxicity
C(=C\c1ccccc1)/CN1CCN(C(c2cccs2)c2nnnn2C2CCCC2)CC1 (stereo not given) | inconclusive [cytotoxic, single point] | –
CN(C)CCCn1c(SCC(=O)N2c3ccccc3Sc3ccccc32)nc2ccccc2c1=O | inconclusive [cytotoxic, single point] | –
CN(C)CC1CC/C(=C\c2ccc(O)cc2)C1=O (stereo not given) | active: 5.17 µM | –
CCc1nc2c(OCc3cccc(OC)c3)cccn2c1N(C)C(=O)C(C)C | inconclusive [rising, partial curve] | –
C/C(=N\Nc1ccc(Cl)cc1)c1c(O)cc(C)oc1=O | active: 23.1 µM | –
CC(=NNC(=S)N1CCCCC1)c1cccc(C)n1 | inconclusive [cytotoxic, partial curve, poor fit] | –
N#C/C(=C\c1cn[nH]c1-c1ccccc1)C(=O)NC1CCCCCC1 | inconclusive [cytotoxic, partial curve] | –
COc1ccc(C(=O)C2CCN(S(=O)(=O)c3ccc4c(c3)OCCO4)CC2)cc1 | inconclusive [cytotoxic, single point] | –
O=C1c2cccc3cc([N+](=O)[O-])cc(c23)C(=O)N1CCN1CCCC1 | active: 2.31 µM | –
CCc1ccc(N2C=C(C(=O)OC)C(c3ccccc3F)C(C#N)=C2N)cc1 (stereo not given) | inconclusive [cytotoxic, partial curve] | –
O=c1[nH]c(/C=C2\C=Nc3ccccc32)c(O)n1Cc1ccccc1F | inconclusive [cytotoxic, single point] | –
CC(=NO)C1(C)CC=CCC1CO (stereo not given) | – | inactive: -6.94%
CCCc1c(-c2cccc(Br)c2)ncn1Cc1cccc(-c2ccccc2)c1 | inconclusive [cytotoxic, single point] | –
CCc1nc2ccc(C(=O)NCc3ccc(OC)cc3)cn2c1N(CC)Cc1cccc(Br)c1 | inconclusive [cytotoxic, single point] | –
CCc1nc2c(OCc3ccc(C(F)(F)F)cc3)cccn2c1N(C)C(=O)c1ccc(OC)cc1 | inconclusive [cytotoxic, single point] | –
O=c1[nH]c(=O)n(Cc2ccccc2)c2nc(-c3ccc(Oc4ccc(F)cc4)c([N+](=O)[O-])c3)n(CCO)c12 | inconclusive [cytotoxic, single point] | –
COc1cc(/C=N/NC(=S)NC2CC3CC2C2C=CCC32)ccc1O (stereo not given) | inconclusive [cytotoxic, single point] | –
CCCCN(C)C(=O)C1CCN(Cc2ccc(OCc3ccccc3)cc2)CC1 | inconclusive [cytotoxic, single point] | –
Cc1c(C(=O)N/N=C/C(C)C)[nH]c2ccc([N+](=O)[O-])cc12 | inconclusive [cytotoxic, single point] | –
O=C(CN1CCC(Cc2ccccc2)CC1)NC(=O)NCc1ccccc1 | – | inactive: 14.5%
COc1cccc(/C=C2/CN(C)CC3=C2OC(N)=C(C#N)C3c2cccc(OC)c2)c1 (stereo not given) | inconclusive [cytotoxic, single point] | –
O=C(Cn1c(=O)c2cccn2c2cccnc21)N1CCN(c2ccccc2F)CC1 | – | inactive: -13.5%
N#CCc1ccc(C(=O)c2ccccc2F)s1 | – | inactive: 8.14%

SMILES | Potency | activity, negative = toxicity
Cc1cccc(C)c1-n1nnnc1SCc1nc(N)nc(N(C)C)n1 | inconclusive [cytotoxic, full curve] | –
COc1ccc(NC(=O)Cn2nnc(-c3ccccc3NC(=O)c3cccs3)n2)cc1 | inconclusive [cytotoxic, single point] | –
Cc1cc(C)cc(NS(=O)(=O)c2ccc(-c3cnc(C4CC4)o3)cc2)c1 | active: 0.651 µM | –
S=C(NCCN1CCOCC1)N/N=C/c1cccs1 | – | inactive: 15.5%
COc1cccc(C(c2nnnn2Cc2ccco2)N2CCN(c3cccc(C)c3C)CC2)c1OC (stereo not given) | – | inactive: -12.1%
COc1ccccc1Cc1c(-c2ccco2)nc2c3ccccc3ccn12 | inconclusive [cytotoxic, partial curve] | –
COc1cc(/C=C2\COC/C(=C\c3ccc(O)c(OC)c3)C2=O)ccc1O | inconclusive [cytotoxic, partial curve, poor fit] | –
CCOC(=O)c1c(NC(=O)CN2CCN(S(=O)(=O)c3cc(Cl)ccc3Cl)CC2)sc(C(=O)N(C)C)c1C | inconclusive [cytotoxic, single point] | –
O=C(O)c1cccc(NC(=O)c2cn(-c3ccccc3)nc2-c2ccc(F)cc2)c1 | – | inactive: -1.67%
CN(CC(=O)Nc1ccccc1C(F)(F)F)C(=O)c1cc(Cl)nc2ccccc12 | – | inactive: 6.41%
COc1ccc(N2CCN(C(=O)c3ccc(CS(=O)(=O)c4ccc(OC)cc4)o3)CC2)cc1 | – | inactive: -4.34%
CC(C)(C)c1ccc(/C=N/Nc2nncn2N)cc1 | inconclusive [cytotoxic, single point] | –
CC(C)Oc1ccc(CN=C(N)N=C(N)N)cc1Cl | inconclusive [cytotoxic, partial curve] | –
O=C(O)/C=C/c1ccc(S(=O)(=O)NCc2cccnc2)cc1 | – | inactive: 2.47%
CCCc1cc(=O)[nH]c(SC(CC)C(=O)Nc2ccccc2C#N)n1 (stereo not given) | – | inactive: -2.53%
CCN(CC)S(=O)(=O)c1cccc(C(=O)/C=C2/N(C)c3ccccc3C2(C)C)c1 | – | inactive: -10.6%
CNCc1ccccc1Sc1ccc(O)c(O)c1 | inconclusive [cytotoxic, single point] | –
O=C(Cn1cnc2c(OCc3ccccc3)ncnc21)NCc1ccccc1 | inconclusive [cytotoxic, single point] | –
OC(CN1CCN(Cc2ccccc2)CC1)Cn1c2ccccc2c2ccccc21 (stereo not given) | inconclusive [cytotoxic, single point] | –
O=C1NC(=O)C(=CC=Cc2ccccc2)S1 | inconclusive [cytotoxic, single point] | –
CC1(C)COC(c2ccc(F)c([N+](=O)[O-])c2)=N1 | inconclusive [cytotoxic, single point] | –
COc1ccc(/C=C(\C#N)C(=O)Nc2ccccn2)cc1 | – | inactive: 7%
